{"source": "paper PMC4336329", "about": "(PLoS ONE, 2015)", "note": "Hit rate of the full screen: of about 310,000 compounds, about 2,200 (0.71%) showed an effect of 50% or more. The effect is printed as a negative number. Some of the results follow.", "data": [{"target": "human ether-à-go-go-related gene (hERG) potassium channel (human, UniProt Q12809)", "sequence (Q12809 whole entry, looked up)": "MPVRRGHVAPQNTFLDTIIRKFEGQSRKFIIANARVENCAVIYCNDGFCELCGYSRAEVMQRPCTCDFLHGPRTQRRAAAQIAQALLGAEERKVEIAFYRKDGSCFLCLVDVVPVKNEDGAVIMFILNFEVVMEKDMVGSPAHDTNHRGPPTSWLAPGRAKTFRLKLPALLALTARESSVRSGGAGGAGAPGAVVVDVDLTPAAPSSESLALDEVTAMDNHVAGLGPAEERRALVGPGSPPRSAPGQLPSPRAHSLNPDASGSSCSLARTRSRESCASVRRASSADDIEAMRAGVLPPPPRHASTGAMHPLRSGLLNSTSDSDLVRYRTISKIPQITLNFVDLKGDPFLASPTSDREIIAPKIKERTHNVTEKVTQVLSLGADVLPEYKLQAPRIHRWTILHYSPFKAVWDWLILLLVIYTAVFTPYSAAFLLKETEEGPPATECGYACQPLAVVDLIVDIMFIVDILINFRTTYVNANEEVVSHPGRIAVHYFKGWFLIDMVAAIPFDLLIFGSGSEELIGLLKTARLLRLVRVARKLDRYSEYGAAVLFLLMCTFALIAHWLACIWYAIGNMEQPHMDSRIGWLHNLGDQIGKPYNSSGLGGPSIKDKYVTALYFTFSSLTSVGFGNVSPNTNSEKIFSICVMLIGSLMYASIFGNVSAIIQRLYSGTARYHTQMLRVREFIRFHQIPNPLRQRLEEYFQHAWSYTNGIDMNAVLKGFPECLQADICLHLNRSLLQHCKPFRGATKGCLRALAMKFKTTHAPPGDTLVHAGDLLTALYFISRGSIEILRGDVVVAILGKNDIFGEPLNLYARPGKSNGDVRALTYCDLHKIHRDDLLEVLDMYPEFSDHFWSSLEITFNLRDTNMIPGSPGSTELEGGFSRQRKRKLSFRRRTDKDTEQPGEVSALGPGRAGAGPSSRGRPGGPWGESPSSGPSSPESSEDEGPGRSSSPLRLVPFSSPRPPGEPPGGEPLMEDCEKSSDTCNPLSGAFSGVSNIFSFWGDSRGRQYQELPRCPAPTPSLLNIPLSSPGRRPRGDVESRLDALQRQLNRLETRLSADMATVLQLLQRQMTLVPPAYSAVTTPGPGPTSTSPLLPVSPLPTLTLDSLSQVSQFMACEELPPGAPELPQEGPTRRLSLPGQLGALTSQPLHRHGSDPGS", "assay": "primary screen, population patch clamp on CHO cells stably expressing hERG", "units": {"hERG current change (%, negative = inhibition) at 1uM": "%"}, "values": [{"compound": "O=S(Cc1ccc(Cl)cc1)CC(O)COc1ccc(Cl)cc1", "note": "(stereo not drawn)", "hERG current change (%, negative = inhibition) at 1uM": 13.2}, {"compound": "Nc1nc(-c2ccc(Cl)cc2)nn1C(=O)c1ccco1", "hERG current change (%, negative = inhibition) at 1uM": 15.6}, {"compound": "O=C(Nc1cccc(Cl)c1N1CCOCC1)c1ccco1", "hERG current change (%, negative = inhibition) at 1uM": 4.55}, {"compound": "CC(C)Cc1nc2sc3c(=O)[nH]cnc3c2c2c1CCCC2", "hERG current change (%, negative = inhibition) at 1uM": 5.52}, {"compound": "N#Cc1c(-c2ccccc2)nc(SCC(=O)NC2CCCCC2)[nH]c1=O", "hERG current change (%, negative = inhibition) at 1uM": 5.58}, {"compound": "Cc1ccc(S(=O)(=O)N2CCOCC2)cc1C(=O)N1CCCC1", "hERG current change (%, negative = inhibition) at 1uM": 10.8}, {"compound": "O=C(Nc1ccc(C(=O)N2CCOCC2)cc1)Nc1cccc(C(F)(F)F)c1", "hERG current change (%, negative = inhibition) at 1uM": 7.27}, {"compound": "COC(=O)c1ccsc1NC(=O)CN1CCN(Cc2ccc3c(c2)OCO3)CC1", "hERG current change (%, negative = inhibition) at 1uM": -59.7}, {"compound": "CC(=O)N1CCOc2ccc(S(=O)(=O)NCc3ccc(F)cc3)cc21", "hERG current change (%, negative = inhibition) at 1uM": -2.95}, {"compound": "CC1(C)CC(=S)Nc2ccccc2S1", "hERG current change (%, negative = inhibition) at 1uM": -1.98}, {"compound": "COc1ccc(N(C(=O)c2ccco2)C(C(=O)NC2CCCC2)c2ccncc2)cc1", "note": "(stereo not drawn)", "hERG current change (%, negative = inhibition) at 1uM": 7.97}, {"compound": "O=C(C1CCCCC1)N1CCC(c2nc3ccccc3[nH]2)CC1", "hERG current change (%, negative = inhibition) at 1uM": 1.06}, {"compound": "O=C(O)CCC(=O)Nc1ccccc1Oc1ccccc1", "hERG current change (%, negative = inhibition) at 1uM": 9.48}, {"compound": "CC1CCCN(c2nc3ccccc3nc2C(C#N)S(=O)(=O)c2ccccc2)C1", "note": "(stereo not drawn)", "hERG current change (%, negative = inhibition) at 1uM": 7.74}, {"compound": "CCCSc1nnc(C(C)C)n1N", "hERG current change (%, negative = inhibition) at 1uM": 4.59}, {"compound": "O=C(C1CCCO1)N1CCC(O)(c2ccccc2)CC1", "note": "(stereo not drawn)", "hERG current change (%, negative = inhibition) at 1uM": 20.8}, {"compound": "COc1ccc(CNC(=O)CCCn2nc(C)c3c(C)n(-c4ccc(C)cc4)nc3c2=O)cc1", "hERG current change (%, negative = inhibition) at 1uM": 6.87}, {"compound": "O=C(O)c1cc(S(=O)(=O)Nc2ccc3cn[nH]c3c2)ccc1Br", "hERG current change (%, negative = inhibition) at 1uM": 8.13}, {"compound": "CCCOc1ccccc1NC(=O)c1ccc([N+](=O)[O-])cc1", "hERG current change (%, negative = inhibition) at 1uM": 7.8}, {"compound": "CCCOC(=O)c1ccc(N2C(=O)c3ccccc3C2=O)cc1", "hERG current change (%, negative = inhibition) at 1uM": 13.5}, {"compound": "C=CCN(C(=O)c1csnn1)C(C(=O)NCc1ccc(F)cc1)c1cccs1", "note": "(stereo not drawn)", "hERG current change (%, negative = inhibition) at 1uM": 9.61}, {"compound": "C=C(C)CC(Nc1ccc(OC)cc1)c1ccco1", "note": "(stereo not drawn)", "hERG current change (%, negative = inhibition) at 1uM": 15.5}, {"compound": "Cl.O=C1CN2Cc3c(ccc(Cl)c3Cl)N=C2N1", "hERG current change (%, negative = inhibition) at 1uM": 0.492}, {"compound": "C=CCOC(=O)C1=C(C)NC(=S)NC1/C=C/c1ccccc1", "note": "(stereo not drawn)", "hERG current change (%, negative = inhibition) at 1uM": 3.17}, {"compound": "CCOc1cccc(C(=O)Nc2cccc(C(=O)NC(C)(C)C)c2)c1", "hERG current change (%, negative = inhibition) at 1uM": 1.03}, {"compound": "CC(C(=O)O)n1c(C(F)(F)F)nc2ccccc21", "note": "(stereo not drawn)", "hERG current change (%, negative = inhibition) at 1uM": 2.07}, {"compound": "Cc1ccc2c(C)c(C(=O)N(C)Cc3ccncn3)oc2c1C", "hERG current change (%, negative = inhibition) at 1uM": 18.9}, {"compound": "C=CCc1cc(OC)ccc1OCCOCCN1CCc2ccccc2C1.O=C(O)C(=O)O", "hERG current change (%, negative = inhibition) at 1uM": 3.59}, {"compound": "CCN(CC)CCNS(=O)(=O)c1ccc(OC)c(Br)c1", "hERG current change (%, negative = inhibition) at 1uM": 3.81}, {"compound": "Cc1cccc(NC(=O)c2cc(Cl)nc3ccccc23)c1", "hERG current change (%, negative = inhibition) at 1uM": 9.39}, {"compound": "O=C(O)Cc1c(C(=O)O)nnn1-c1ccc(Cl)cc1Cl", "hERG current change (%, negative = inhibition) at 1uM": 7.31}, {"compound": "Cl.OC(CCCCN1CCCCC1)c1ccccc1", "note": "(stereo not drawn)", "hERG current change (%, negative = inhibition) at 1uM": 5.51}, {"compound": "O=C(CNC(=O)C1CCCCC1)Nc1cc(Cl)ccc1Cl", "hERG current change (%, negative = inhibition) at 1uM": 1.54}, {"compound": "O=C(O)C[C@H]1c2cc(C(F)(F)F)ccc2S(=O)(=O)N1C1CCCC1", "hERG current change (%, negative = inhibition) at 1uM": 17.1}, {"compound": "CC(=O)c1cc2c(cc1NC(=O)CCC1CCCC1)OCO2", "hERG current change (%, negative = inhibition) at 1uM": 9.55}, {"compound": "O=S(CC1CC1(Cl)Cl)CC1CC1(Cl)Cl", "note": "(stereo not drawn)", "hERG current change (%, negative = inhibition) at 1uM": 3.59}, {"compound": "O=C(CNC(=O)c1nc[nH]c1C(=O)NCC(=O)OCc1ccccc1)OCc1ccccc1", "hERG current change (%, negative = inhibition) at 1uM": 10.3}, {"compound": "CN1c2ccc(Cl)cc2C(=O)NC1c1ccc([N+](=O)[O-])s1", "note": "(stereo not drawn)", "hERG current change (%, negative = inhibition) at 1uM": -5.04}, {"compound": "CCCN(CCC)C(=O)Cn1c(=O)n(CCCCCC(=O)Nc2ccccc2)c(=O)c2sccc21", "hERG current change (%, negative = inhibition) at 1uM": -0.0623}, {"compound": "Cc1nc(-c2ccc(Cl)cc2)sc1C1(C)CC(c2ccc(Cl)cc2)=NO1", "note": "(stereo not drawn)", "hERG current change (%, negative = inhibition) at 1uM": 20.3}, {"compound": "CCOC(=O)CNC(=O)CSc1nnnn1-c1cc(C)ccc1C", "hERG current change (%, negative = inhibition) at 1uM": 14.2}, {"compound": "Cc1cc(/C=C2\\SC(=S)N(Cc3ccco3)C2=O)c(C)n1-c1ccccc1", "hERG current change (%, negative = inhibition) at 1uM": 11}, {"compound": "CC(=O)OC1CC(C)(C)N(OC(=O)CCCN2C(=O)c3ccccc3C2=O)C(C)(C)C1", "hERG current change (%, negative = inhibition) at 1uM": 1.29}, {"compound": "CC(C)(C)OC(=O)N1CCCN(C(=O)Nc2cccc(Cl)c2)CC1", "hERG current change (%, negative = inhibition) at 1uM": 4.94}, {"compound": "Cc1ccc2c(c1)N(CC(=O)N1CCCc3ccccc31)C(=O)C(C)O2", "note": "(stereo not drawn)", "hERG current change (%, negative = inhibition) at 1uM": -4.43}]}]}
